Among all 150,000 compounds or so, about 540 (0.36%) showed an effect of 50% or more. This is one part of the list.

What is called % Inhibition is the relative decrease from the control value, in per cent.

This experiment relates to Plasmodium falciparum. In words: Primary screen in NF54 nanoGlo assay, in single point, at 2uM, 72h; a lower Z score goes with more inhibition. It counts as functional, Erythrocyte. The conditions noted are these: timepoint 72 hour.
For the compound `c1c[nH]c(C2CCN(c3ncnc4[nH]ccc34)CC2)n1`, the “% Inhibition” value is -9% and the Z score is on record as 1.08.
On to `COc1ccc(C[C@H](CO)CNc2nc3ccccc3o2)cc1O`, for which the “% Inhibition” value was -4% and the Z score was 0.81.
For the compound `CC(=O)Nc1c(-c2ccccn2)nsc1C(=O)NC1CCCC1`, the “% Inhibition” value is listed as 6% and the Z score is reported as -0.6.
Regarding `COc1ncccc1[C@H]1CC(=O)NCc2nc(N3CCCC3)sc21`, the “% Inhibition” value is -5% and the Z score stood at 1.
Consider `C[C@](O)(CNS(=O)(=O)Cc1ccccc1)c1ccco1`, for which the “% Inhibition” value is recorded as -6% and the Z score is listed as 1.11.
Consider `CN(CC1CC(O)C1)C(=O)N[C@@H](Cc1ccccc1)c1ccccc1` (some centres undefined), for which the “% Inhibition” value is reported as -3% and the Z score is 0.46.
Regarding `CN1CCCC(NC(=O)N2CCCC2C2CCC2)C1` (centres undefined), the “% Inhibition” value is recorded as -1% and the Z score is reported as 0.08.
Take `N#Cc1ccccc1CN1C(=O)CN(C2CCCC2)C1=O`: the “% Inhibition” value stood at 5% and the Z score is -0.5.
As to `CCc1onc(C)c1C(=O)NCCC(=O)Nc1cccnc1`, the “% Inhibition” value came to 2% and the Z score is on record as -0.15.
On the same counts, the results for `CC1(C)CN(C(=O)[C@@H]2Cc3ccccc3N2)CCO1` are -2% and 0.32.
Regarding `CCN1CCC[C@H](NC(=O)c2cccc(Oc3nccs3)c2)C1`, the “% Inhibition” value is -9% and the Z score amounted to 1.14.
On the same counts, the results for `Cc1nn(C)c(N)c1C(=O)N[C@H]1COCC1(C)C` are -3% and 0.66.
Consider `Cc1csc(NC(=O)CCc2nc3ccccc3c(=O)[nH]2)n1`, for which the “% Inhibition” value is given as -5% and the Z score turned out to be 1.08.
On the same counts, the results for `CCC=C(C)C(=O)N[C@@H](CNC(=O)OC(C)(C)C)C1CC1` are 0% and -0.02.
For `CCCC(=O)N1CCC[C@H]1C(=O)N1CCn2cncc2C1`, the “% Inhibition” value was -5% and the Z score was 0.86.
For the compound `CO[C@@H](CS(=O)(=O)Nc1c(C#N)c(C)c2ccccn12)C1CC1`, the “% Inhibition” value is -4% and the Z score came out at 0.52.
In the case of `Cc1ccc(Nc2nc(NC[C@H]3CCCO3)nc3[nH]ncc23)cc1C`, the “% Inhibition” value was -3% and the Z score came out at 0.47.
For `Cc1ccc(NC(=O)[C@H](C)NS(=O)(=O)c2ccc3c(c2)CCN3C(=O)N2CCCC2)nc1`, the “% Inhibition” value is -6% and the Z score was 0.63.
Turning to `COc1cccc(OC)c1C(=O)Nc1ccc(Oc2ccc(Br)c3ccccc23)c(Cl)c1`, the “% Inhibition” value was found to be 2% and the Z score was -0.2.
For the compound `O=C(CC1CCCCC1)Nc1nc[nH]n1`, the “% Inhibition” value is 14% and the Z score is -1.87.
On to `CCNc1cc(CNC(=O)Nc2cc3n(n2)CCN(C)C3)ccn1`, for which the “% Inhibition” value was -13% and the Z score was 2.61.
In the same order, the values of `CS(=O)(=O)N1CCC(C(=O)N2CCC(=C3CC3)CC2)CC1` are -10% and 1.16.
`Cc1cccnc1C[C@H](C)NC(=O)Cn1nnnc1N`: the “% Inhibition” value is reported as -2% and the Z score was determined as 0.31.
Turning to `CC(NC(=O)NC1CCCCC1OCc1ccccc1)c1nc[nH]n1` (centres undefined), the “% Inhibition” value is recorded as -8% and the Z score stood at 0.72.
As for `C[C@@H](O)[C@@H]1NC(=O)[C@@H]2C[C@H](NC(=O)c3ccc4ccccc4c3)CN2C1=O`, the “% Inhibition” value was found to be 1% and the Z score is on record as -0.12.
`Cc1ccc(C2(CN3CCCC3)CCN(C(=O)c3cnc(C)cn3)CC2)nc1`: the “% Inhibition” value was -4% and the Z score was 0.79.
In the case of `CN(Cc1ccoc1)C(=O)c1cc(F)c[nH]1`, the “% Inhibition” value was -7% and the Z score is on record as 0.63.
Consider `CC(C)c1ccc(NC(=O)C2CCN(C(=O)c3ccc4c(c3)nnn4C3CCCC3)CC2)cc1`, for which the “% Inhibition” value is on record as -5% and the Z score is listed as 0.94.
Regarding `CC(C)NC(=O)OC[C@H]1CCCCN1Cc1cnn2ccccc12`, the “% Inhibition” value is 2% and the Z score is given as -0.31.
Take `CC1CC(N)CCN1C(=O)CCN1c2ccccc2CCC1C` (centres undefined): the “% Inhibition” value was -3% and the Z score amounted to 0.36.
Regarding `COc1ccc(-c2n[nH]c3nc(-c4ccc(F)cc4)cc(C(=O)NCc4ccc(F)cc4)c23)cc1`, the “% Inhibition” value is -23% and the Z score was 2.09.
`C[C@H](NC(=O)N1CCN(S(=O)(=O)c2ccccc2Cl)CC1)c1ccc2c(c1)OCCO2`: the “% Inhibition” value came to 14% and the Z score is recorded as -1.18.
Consider `C[C@H](NC(=O)Cc1nnc(-c2ccsc2)o1)c1ccc(F)cc1`, for which the “% Inhibition” value is -7% and the Z score is given as 0.69.
In the case of `CC1CCC(C)N(C(=O)c2ccc3nnnn3c2)C1` (centres undefined), the “% Inhibition” value is reported as -10% and the Z score is 1.86.
In the same order, the values of `CCNc1cc(CNC(=O)Nc2conc2C)ccn1` are -2% and 0.26.
As to `NC(=O)c1cnn(CCc2noc(C3(c4ccccc4)CC3)n2)c1`, the “% Inhibition” value is reported as -5% and the Z score worked out at 0.77.
Consider `Cc1nc(N[C@H]2CCCC[C@@H]2OCc2ccccc2)c2cccnc2n1`, for which the “% Inhibition” value is on record as -2% and the Z score was found to be 0.37.
On the same counts, the results for `O=C(Nc1ccc(Cl)c(Cl)c1)c1no[n+]([O-])c1C(=O)Nc1ccc(Cl)c(Cl)c1` are -4% and 0.6.
Turning to `Cc1cc(-c2c(-c3ccccc3)[nH]c3c2c(=O)n(C)c(=O)n3C)c(C)s1`, the “% Inhibition” value is given as -13% and the Z score is 1.97.
As for `CC(C)(C)c1ccc(OCc2nnc3n2CCOC3)cc1`, the “% Inhibition” value was -12% and the Z score was 1.82.
Regarding `COc1cc(C(=O)N(C)c2ccc(OC(=S)N3CCOCC3)cc2)cc(OC)c1OC`, the “% Inhibition” value is -2% and the Z score is on record as 0.37.
In the same order, the values of `Cc1noc(C)c1[C@@H](C)CNc1cc(C#N)ccn1` are -13% and 2.29.

These data come from ChEMBL document CHEMBL4888484, “Replenishing the malaria drug discovery pipeline: Screening and hit evaluation of the MMV Hit Generation Library 1 (HGL1) against asexual blood stage Plasmodium falciparum ,using a nano luciferase reporter read-out” (2022).
